Counter-ions that a name gives are not always drawn. This is one part of the list. The data scatter; read single values as rough.
Each compound was assayed on SUM159 (assay: ALDHbr (CSC) cell proportion score relative to DMSO vehicle (ratio to DMSO); breast (SUM159) / gastric (MKN45) / pancreatic (PANC1) / colon cancer lines; ALDHbr cells have high ALDH activity and are rich in cancer stem cells (CSC); higher = more CSC (ALDHbr) cells remaining). Settings: 10 µM; 72 h.
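Further: High-content imaging of ALDEFLUOR-stained cells with Hoechst-labelled nuclei in 384-well plates, triplicate wells, scored as Z-score against 0.1% DMSO vehicle, negative meaning fewer ALDHbr cells.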

Structure (SMILES)	ALDHbr
N#Cc1cc(NC(=O)C(=O)O)c(Cl)c(NC(=O)C(=O)O)c1 [Lodoxamide]	0.913
CCOc1cc(CC(=O)N[C@@H](CC(C)C)c2ccccc2N2CCCCC2)ccc1C(=O)O [Repaglinide]	1.26
Nc1nc(NC2CC2)c2ncn([C@H]3C=C[C@@H](CO)C3)c2n1 [Abacavir Sulfate]	1.24
O=C(NCC1CCCCN1)c1cc(OCC(F)(F)F)ccc1OCC(F)(F)F (centres undefined) [Flecainide acetate]	0.947
OCc1cc(C(O)CNCCCCCCOCCCCc2ccccc2)ccc1O (centres undefined) [Salmeterol]	1.88
c1ccc(CNc2ncnc3nc[nH]c23)cc1 [Aminopurine, 6-benzyl]	0.874
Cc1cc(C(C)(C)C)cc(C)c1CC1=NCCN1 [Xylometazoline hydrochloride]	0.87
C[C@H](O)C(=O)Nc1c(I)c(C(=O)NC(CO)CO)c(I)c(C(=O)NC(CO)CO)c1I [Iopamidol]	1.23
CC(=O)CC(c1ccc([N+](=O)[O-])cc1)c1c(O)c2ccccc2oc1=O (centres undefined) [Acenocoumarol]	1.1
Cc1c(Cl)cccc1Nc1ncccc1C(=O)O [Clonixin Lysinate]	0.842
COc1ccc(CN2CCN(C(c3ccc(F)cc3)c3ccc(F)cc3)CC2)c(OC)c1OC [Lomerizine hydrochloride]	0.769
CNCCC=C1c2ccccc2C=Cc2ccccc21 [Norcyclobenzaprine]	0.556
CC[C@H]1OC(=O)C[C@@H](O)[C@H](C)[C@@H](O[C@@H]2O[C@H](C)[C@@H](O[C@H]3C[C@@](C)(O)[C@@H](O)[C@H](C)O3)[C@H](N(C)C)[C@H]2O)[C@@H](CC=O)C[C@@H](C)C(=O)/C=C/C(C)=C/[C@@H]1CO[C@@H]1O[C@H](C)[C@@H](O)[C@@H](OC)[C@H]1OC [Tylosin]	1.05
CC1=C(/C=C/C(C)=C/C=C/C(C)=C\C(=O)O)C(C)(C)CCC1 [Isotretinoin]	0.0517
CC(C)(C)NC[C@H](O)c1ccc(O)c(CO)c1 [Levalbuterol hydrochloride]	2.07
CCC[C@@H]1C[C@@H](C(=O)N[C@@H]([C@H]2O[C@H](SC)[C@H](O)[C@@H](O)[C@H]2O)[C@H](C)Cl)N(C)C1 [Clindamycin hydrochloride]	1.12
C[N+]1(C)CCC(=C(c2ccccc2)c2ccccc2)CC1 [Diphemanil methylsulfate]	0.835
CC(=O)OC(C)C[N+](C)(C)C (centres undefined) [Methacholine chloride]	1.02
C[n+]1ccccc1/C=N/O [Pralidoxime chloride]	1.21
CCC(=O)OCC(=O)[C@@]1(OC(=O)CC)[C@@H](C)C[C@H]2[C@@H]3CCC4=CC(=O)C=C[C@]4(C)[C@@]3(Cl)[C@@H](O)C[C@@]21C [Beclomethasone dipropionate]	0.89

Structure (SMILES)	ALDHbr
CN1CCc2c(c3ccccc3n2Cc2ccccc2)C1 [Mebhydroline 1,5-naphtalenedisulfonate]	0.702
Oc1ccc(OCc2ccccc2)cc1 [Monobenzone]	2.52
NS(=O)(=O)c1cc(C2(O)NC(=O)c3ccccc32)ccc1Cl (centres undefined) [Chlorthalidone]	1.09
N=C(N)NCc1cccc(I)c1 [Iobenguane sulfate]	1.48
CC(=O)/N=c1/sc(S(N)(=O)=O)nn1C [Methazolamide]	1.15
C[C@]1(Cn2ccnn2)[C@H](C(=O)O)N2C(=O)C[C@H]2S1(=O)=O [Tazobactam]	1.04
COc1ccc(C(=O)c2ccccc2O)c(O)c1 [Dioxybenzone]	1.12
Cc1ncc([N+](=O)[O-])n1CC(O)CCl (centres undefined) [Ornidazole]	0.932
CCCCNc1ccc(C(=O)OCCOCCOCCOCCOCCOCCOCCOCCOCCOC)cc1 [Benzonatate]	0.902
Clc1ccccc1CN1CCc2sccc2C1 [Ticlopidine hydrochloride]	1.01
CN1CCN(c2c(F)cc3c(=O)c(C(=O)O)cn(CCF)c3c2F)CC1 [Fleroxacin]	1.02
C[C@@H](c1ncncc1F)[C@](O)(Cn1cncn1)c1ccc(F)cc1F [Voriconazole]	1.04
CC(=O)O[C@H]1C[C@@H]2CC[C@@H]3[C@H](CC[C@@]4(C)[C@H]3C[C@H]([N+]3(C)CCCCC3)[C@@H]4OC(C)=O)[C@@]2(C)C[C@@H]1N1CCCCC1 [Vecuronium bromide]	0.876
C=CCSCC1Nc2cc(Cl)c(S(N)(=O)=O)cc2S(=O)(=O)N1 (centres undefined) [Althiazide]	1.19
C=C1/C(=C\C=C2/CCC[C@]3(C)[C@@H]([C@H](C)/C=C/[C@@H](O)C4CC4)CC[C@@H]23)C[C@@H](O)C[C@@H]1O [Calcipotriene]	0.792
CN1CCOC(c2ccccc2)c2ccccc2C1 (centres undefined) [Nefopam hydrochloride]	1.01
Cc1c(N)c(=O)n(-c2ccccc2)n1C [Ampyrone]	1.14
CC(C)(C)NC(=O)[C@H]1CC[C@H]2[C@@H]3CC[C@H]4NC(=O)C=C[C@]4(C)[C@H]3CC[C@]12C [Finasteride]	2.55
Cn1c(NCCN(CCO)CCCc2ccc([N+](=O)[O-])cc2)cc(=O)n(C)c1=O [Nifekalant]	0.849
